Test results as given in publication PMC3791464 (eLife, 2013).
Changes are numbered by the printed parent chain. Names may count otherwise. No constants are given. Whether binding was seen depends on the method and setting. Binding seen in cells or lysates may run through a third protein. Some results given as binding are weak or reduced against the parent protein; the word gives no strength. For some of these results: Tags and fused reporters may be left off the sequences shown.

Assays:
[1] = biological target: T1, Drosophila Orc2, endogenous in fly ovaries (Drosophila (endogenous in fly ovaries)) (UniProt Q24168); experiment: co-IP; fly ovary extract (high-salt extraction, diluted), rabbit polyclonal Orc2 antibodies on Protein A-Sepharose; Western blot with anti-GFP, anti-Orc3, anti-Orc5; GFP fluorescence of the beads also measured
T1 sequence: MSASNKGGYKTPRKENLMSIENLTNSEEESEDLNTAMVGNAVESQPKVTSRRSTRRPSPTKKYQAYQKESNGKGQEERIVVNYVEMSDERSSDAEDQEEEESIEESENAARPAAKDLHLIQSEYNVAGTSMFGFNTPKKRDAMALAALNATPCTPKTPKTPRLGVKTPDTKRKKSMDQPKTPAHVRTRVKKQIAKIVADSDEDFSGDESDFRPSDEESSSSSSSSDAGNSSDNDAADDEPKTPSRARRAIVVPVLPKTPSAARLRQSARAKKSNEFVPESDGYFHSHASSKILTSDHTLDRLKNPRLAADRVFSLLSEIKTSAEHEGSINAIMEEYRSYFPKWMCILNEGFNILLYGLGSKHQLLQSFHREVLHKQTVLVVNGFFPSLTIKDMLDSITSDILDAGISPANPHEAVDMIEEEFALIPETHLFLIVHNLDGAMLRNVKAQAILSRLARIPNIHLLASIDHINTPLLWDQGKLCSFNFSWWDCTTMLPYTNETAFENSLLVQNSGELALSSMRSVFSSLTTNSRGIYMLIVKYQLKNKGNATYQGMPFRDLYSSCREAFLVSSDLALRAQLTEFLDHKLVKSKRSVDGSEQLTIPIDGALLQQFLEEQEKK

[2] = biological target: T2, S. cerevisiae MBP–Orc3 (S. cerevisiae), P54790; experiment: pull-down; N-terminally MBP-tagged bait and N-terminally 6×His-tagged prey (with further ORC subunits where named) co-expressed in High5 cells by baculovirus co-infection; clarified lysate (50 mM Tris HCl pH 7.8, 300 mM KCl, 10% glycerol, 1 mM DTT; 0.78 M ammonium sulfate step) on amylose beads, three washes; Coomassie-stained SDS-PAGE, anti-His Western blot for some preys; conditions: remark: other sources report otherwise
T2 chain: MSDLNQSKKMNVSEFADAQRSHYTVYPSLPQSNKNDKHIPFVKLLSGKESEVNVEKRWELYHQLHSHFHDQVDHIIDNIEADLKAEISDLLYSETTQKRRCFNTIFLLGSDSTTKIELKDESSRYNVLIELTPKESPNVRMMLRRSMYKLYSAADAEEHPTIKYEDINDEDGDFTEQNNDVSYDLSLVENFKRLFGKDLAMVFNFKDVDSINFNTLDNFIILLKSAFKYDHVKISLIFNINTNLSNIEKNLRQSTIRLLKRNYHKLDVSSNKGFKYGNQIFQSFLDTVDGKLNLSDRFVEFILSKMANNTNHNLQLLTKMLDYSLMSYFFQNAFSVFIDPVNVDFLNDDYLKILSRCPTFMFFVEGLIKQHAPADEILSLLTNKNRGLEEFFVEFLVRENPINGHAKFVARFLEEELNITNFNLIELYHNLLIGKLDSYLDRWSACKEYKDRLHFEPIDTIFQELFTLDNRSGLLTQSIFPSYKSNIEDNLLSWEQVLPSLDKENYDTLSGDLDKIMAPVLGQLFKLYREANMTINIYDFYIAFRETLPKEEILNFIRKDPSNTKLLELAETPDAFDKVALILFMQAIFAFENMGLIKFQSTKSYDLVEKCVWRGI

[3] = biological target: T3, S. cerevisiae MBP–Orc3 (S. cerevisiae) (UniProt P54790); experiment: as above
T3 sequence: T2 chain

[4] = biological target: T4, S. cerevisiae MBP–Orc1 (S. cerevisiae) (UniProt P54784); experiment: as above
T4 sequence: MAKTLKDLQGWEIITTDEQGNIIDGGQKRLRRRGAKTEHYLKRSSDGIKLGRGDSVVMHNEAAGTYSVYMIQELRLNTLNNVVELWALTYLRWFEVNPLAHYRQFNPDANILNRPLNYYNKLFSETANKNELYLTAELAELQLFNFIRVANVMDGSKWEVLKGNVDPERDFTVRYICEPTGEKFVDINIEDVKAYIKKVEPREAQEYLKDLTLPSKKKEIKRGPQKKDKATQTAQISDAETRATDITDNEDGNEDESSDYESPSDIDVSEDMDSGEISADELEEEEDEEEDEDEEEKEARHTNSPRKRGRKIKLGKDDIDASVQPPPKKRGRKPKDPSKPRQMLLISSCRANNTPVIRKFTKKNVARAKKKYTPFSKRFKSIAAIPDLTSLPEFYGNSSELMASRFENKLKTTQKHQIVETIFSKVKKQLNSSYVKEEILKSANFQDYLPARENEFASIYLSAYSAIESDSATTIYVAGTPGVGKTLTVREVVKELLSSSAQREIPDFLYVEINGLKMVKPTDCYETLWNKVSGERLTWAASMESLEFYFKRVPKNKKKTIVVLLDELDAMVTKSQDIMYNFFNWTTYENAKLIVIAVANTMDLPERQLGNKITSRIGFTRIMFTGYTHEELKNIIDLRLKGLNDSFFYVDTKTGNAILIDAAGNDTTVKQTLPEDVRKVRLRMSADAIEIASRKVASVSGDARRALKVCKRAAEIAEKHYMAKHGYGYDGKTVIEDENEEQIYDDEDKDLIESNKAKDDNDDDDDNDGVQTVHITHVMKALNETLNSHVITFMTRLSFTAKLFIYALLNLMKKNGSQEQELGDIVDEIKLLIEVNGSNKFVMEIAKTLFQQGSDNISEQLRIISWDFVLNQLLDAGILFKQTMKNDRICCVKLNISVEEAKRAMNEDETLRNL

B1: Drosophila Orc3 in untagged recombinant ORC (natural protein, Drosophila melanogaster, UniProt Q7K2L1 1-721, looked up)
chain: MDPTISVSKGCFVYKNGATRAGKKAASKRKRPAAESSSLLGKEVVQQPFYEEYRKAWNQINDHIADLQHRSYARTLEQLVDFVVGQAERDTPDEVLPTAALLTGINQPDHLSQFTALTQRLHAQRAAMVCVLQSRDCATLKAAVETLVFGLVEDNAEVEQMEDEDEDEDGAERDRKRLRRSQCTMKQLKSWYTNNFDSEQKRRQLVVILPDFECFNASVLQDLILILSAHCGSLPFVLVLGVATAMTAVHGTLPYHVSSKIRLRVFQTQAAPTGLNEVLDKVLLSPKYAFHLSGKTFKFLTHIFLYYDFSIHGFIQGFKYCLMEHFFGGNAFALCTDYSKALGRIKQLTHEDMETIRRLPSFRPYVEQINDCKRIIAVLTDDDYLKKKLPQLLRDCLLHFLLFRCSLEFLTELVGDLPRCPLGKLRRELYVNCLNRAIISTPEYKECLQMLSFLSKDEFVAKVNRALERTEQFLVEEIAPLELGEACTAVLRPKLEAIRLAVDEVVKATMATITTTSPNETRQATDHLTPVASRQELKDQLLQRSKEDKMRHQLNTPTTQFGRALQKTLQLIETQIVQDHLRALQDAPPIHELFVFSDIATVRRNIIGAPRAALHTALNNPHFYMQCKCCELQDQSLLVGTLPDLSVVYKLHLECGRMINLFDWLQAFRSVVSDSDHEEVAQEQIDPQIQARFTRAVAELQFLGYIKMSKRKTDHATRLTW
notes: Drosophila Orc3, no purification tag; source: High5 cells co-infected with six baculoviruses, co-purified (Ni, amylose, TEV, gel filtration)
binding [1]: binds

B2: S. cerevisiae Orc6 wild type, His-tagged, P38826 1-435 (protein)
chain: MSMQQVQHCVAEVLRLDPQEKPDWSSGYLKKLTNATSILYNTSLNKVMLKQDEEVARCHICAYIASQKMNEKHMPDLCYYIDSIPLEPKKAKHLMNLFRQSLSNSSPMKQFAWTPSPKKNKRSPVKNGGRFTSSDPKELRNQLFGTPTKVRKSQNNDSFVIPELPPMQTNESPSITRRKLAFEEDEDEDEEEPGNDGLSLKSHSNKSITGTRNVDSDEYENHESDPTSEEEPLGVQESRSGRTKQNKAVGKPQSELKTAKALRKRGRIPNSLLVKKYCKMTTEEIIRLCNDFELPREVAYKIVDEYNINASRLVCPWQLVCGLVLNCTFIVFNERRRKDPRIDHFIVSKMCSLMLTSKVDDVIECVKLVKELIIGEKWFRDLQIRYDDFDGIRYDEIIFRKLGSMLQTTNILVTDDQYNIWKKRIEMDLALTEPL
binding [2]: binds

B3: S. cerevisiae Orc6-Y418S, His-tagged (protein, UniProt P38826 1-435)
chain: B2 chain with Y418S
binding [3]: no binding

B4: S. cerevisiae Orc5 co-expressed with the other ORC subunits (protein, UniProt P50874 1-479)
chain: MNVTTPEVAFREYQTNCLASYISADPDITPSNLILQGYSGTGKTYTLKKYFNANPNLHAVWLEPVELVSWKPLLQAIARTVQYKLKTLYPNIPTTDYDPLQVEEPFLLVKTLHNIFVQYESLQEKTCLFLILDGFDSLQDLDAALFNKYIKLNELLPKDSKINIKFIYTMLETSFLQRYSTHCIPTVMFPRYNVDEVSTILVMSRCGELMEDSCLRKRIIEEQITDCTDDQFQNVAANFIHLIVQAFHSYTGNDIFALNDLIDFKWPKYVSRITKENIFEPLALYKSAIKLFLSTDDNLSENGQGESAITTNRDDLENSQTYDLSIISKYLLIASYICSYLEPRYDASIFSRKTRIIQGRAAYGRRKKKEVNPRYLQPSLFAIERLLAIFQAIFPIQGKAESGSLSALREESLMKANIEVFQNLSELHTLKLIATTMNKNIDYLSPKVRWKVNVPWEIIKEISESVHFNISDYFSDIHE
binding [4]: binds

B5: S. cerevisiae Orc4 co-expressed with the other ORC subunits (protein, UniProt P54791 1-529)
chain: MTISEARLSPQVNLLPIKRHSNEEVEETAAILKKRTIDNEKCKDSDPGFGSLQRRLLQQLYGTLPTDEKIIFTYLQDCQQEIDRIIKQSIIQKESHSVILVGPRQSYKTYLLDYELSLLQQSYKEQFITIRLNGFIHSEQTAINGIATQLEQQLQKIHGSEEKIDDTSLETISSGSLTEVFEKILLLLDSTTKTRNEDSGEVDRESITKITVVFIFDEIDTFAGPVRQTLLYNLFDMVEHSRVPVCIFGCTTKLNILEYLEKRVKSRFSQRVIYMPQIQNLDDMVDAVRNLLTVRSEISPWVSQWNETLEKELSDPRSNLNRHIRMNFETFRSLPTLKNSIIPLVATSKNFGSLCTAIKSCSFLDIYNKNQLSNNLTGRLQSLSDLELAILISAARVALRAKDGSFNFNLAYAEYEKMIKAINSRIPTVAPTTNVGTGQSTFSIDNTIKLWLKKDVKNVWENLVQLDFFTEKSAVGLRDNATAAFYASNYQFQGTMIPFDLRSYQMQIILQELRRIIPKSNMYYSWTQL
binding [4]: binds

B6: S. cerevisiae Orc2, His-tagged (protein, UniProt P32833 1-620)
chain: MLNGEDFVEHNDILSSPAKSRNVTPKRVDPHGERQLRRIHSSKKNLLERISLVGNERKNTSPDPALKPKTPSKAPRKRGRPRKIQEELTDRIKKDEKDTISSKKKRKLDKDTSGNVNEESKTSNNKQVMEKTGIKEKREREKIQVATTTYEDNVTPQTDDNFVSNSPEPPEPATPSKKSLTTNHDFTSPLKQIIMNNLKEYKDSTSPGKLTLSRNFTPTPVPKNKKLYQTSETKSASSFLDTFEGYFDQRKIVRTNAKSRHTMSMAPDVTREEFSLVSNFFNENFQKRPRQKLFEIQKKMFPQYWFELTQGFSLLFYGVGSKRNFLEEFAIDYLSPKIAYSQLAYENELQQNKPVNSIPCLILNGYNPSCNYRDVFKEITDLLVPAELTRSETKYWGNHVILQIQKMIDFYKNQPLDIKLILVVHNLDGPSIRKNTFQTMLSFLSVIRQIAIVASTDHIYAPLLWDNMKAQNYNFVFHDISNFEPSTVESTFQDVMKMGKSDTSSGAEGAKYVLQSLTVNSKKMYKLLIETQMQNMGNLSANTGPKRGTQRTGVELKLFNHLCAADFIASNEIALRSMLREFIEHKMANITKNNSGMEIIWVPYTYAELEKLLKTVLNTL
binding [3]: binds

B7: Drosophila Orc5 in untagged recombinant ORC (natural protein, Drosophila melanogaster, UniProt Q24169 1-460, looked up)
chain: MEAICSSLEPLFPCREAAIETLGELIGDSSETYPSAIYLFGHSGTGKTALTRAFLKECGKRQNVRTAHLNAIECYTTKIMLEILLDSLAPDQGDALKVDNMLDFVEQLRRQAATRVEDQGFLIAVDNAERLRDMDANVLPVLLRLQELTNLNLCVILLSQLPFEKFYNKTGLSEIVCLHLAQYNKAETQRILGSDFQQVRNQLLEQFAQDKKRLEICQEAVTEDFYNNYLNLFLSVFYKACRDVPELQLTARKCLSTYLEPVLDGTVDATDISRLWRHIAGPLRSALTQIYMRIEKPAEEVEDFTAIEDQSVRKLAQSLELPYYAKFLLIAAFLASHNAAKQDKRLFVKHHGKQRKRMQTVNARAKTTEKMSTTLGPKSFSIDRLLAIFYAILEEKVGLTCNLLSQISTLVHLNLLSFVSGEQNIMEGSARLQCTIGLEFVLQIGKVVGFNVRQYLCDFM
notes: Drosophila Orc5; the methods list Orc4 twice and leave Orc5 out of the untagged subunits; source: High5 cells co-infected with six baculoviruses, co-purified (Ni, amylose, TEV, gel filtration)
binding [1]: binds
